In the supplement of paper PMC9446081 one finds relative growth data, which are given here for 59 molecules.

The campaign covered roughly 39,000 compounds. About 220 (0.56%) showed activity. Some of the results follow.
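Also: static incubation at 37 °C against the wild-type strain, values averaged over two biological replicates.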

The test has as its system Escherichia coli K-12 BW25113. The experiment in a line: relative growth (OD600 normalised to plate interquartile mean) (fraction); higher = less growth inhibition, active = 0.2 or less. The settings on record: 50 µM; LB; incubation time: overnight (16-24 h).
Turning to `COc1cc2ccc(=O)oc2c(O[C@H]2O[C@@H](CO)[C@@H](O)[C@@H](O)[C@@H]2O)c1O`, the relative growth is inactive: 1.03.

For `C[C@@H]1CN([C@H](C)CO)C(=O)Cc2cc(NC(=O)Cn3cnnn3)ccc2O[C@@H]1CN(C)C(=O)Nc1cccc2ccccc12`, the relative growth was inactive: 0.999.

`Cc1noc(C)c1NC(=O)N(C)C[C@@H]1OCCCC[C@H](C)Oc2ccc(NC(=O)Nc3ccccc3)cc2C(=O)N([C@@H](C)CO)C[C@H]1C`: the relative growth was inactive: 0.952.

For the molecule `CN1C[C@@H]2CN(C(=O)[C@H]3CCOC3)C[C@H]2C1=O`, the relative growth is inactive: 0.972.

In the case of `COc1cccc(S(=O)(=O)Nc2ccc3c(c2)[C@H]2C[C@@H](CC(=O)NCc4cccc(F)c4)O[C@@H](CO)[C@H]2O3)c1`, the relative growth was inactive: 0.965.

Turning to `O=C(C[C@@H]1C[C@@H]2c3cc(NC(=O)c4ccc5c(c4)OCO5)ccc3O[C@@H]2[C@H](CO)O1)NCc1cccnc1`, the relative growth was inactive: 0.999.

Regarding `C[C@H](CO)N1C[C@H](C)[C@H](CN(C)S(=O)(=O)c2ccc(Cl)cc2)Oc2ccc(NC(=O)Nc3ccc(C(F)(F)F)cc3)cc2C1=O`, the relative growth is inactive: 1.02.

Regarding `C[C@@H]1CN([C@H](C)CO)C(=O)CCCn2cc(nn2)CO[C@H]1CN(C)S(=O)(=O)c1ccc(Cl)cc1`, the relative growth was inactive: 0.999.

On to `COc1cccc(C#Cc2cnc3c(c2)C(=O)N([C@H](C)CO)C[C@H](C)[C@@H](CN(C)C(=O)C2CCC2)O3)c1`, for which the relative growth is inactive: 1.02.

In the case of `COc1ccc2c3c([nH]c2c1)[C@H](CO)N(C[C@]13CCN(CC1)Cc1ccccc1)S(=O)(=O)c1cn(cn1)C`, the relative growth was inactive: 1.02.

In the case of `Clc1ccc(-c2onc3cc(-c4ccccc4)ccc23)cc1`, the relative growth was inactive: 1.05.

On to `CCC(=O)OC1C2CC3=C4CC(=O)OC(c5ccoc5)C4(C)CCC3C(C)(C2=O)C(CC(=O)OC)C1(C)C` (centres undefined), for which the relative growth is inactive: 1.04.

With `Cc1ccc(S(=O)(=O)N2C[C@@H](O)COC[C@@H]3O[C@H](CC(=O)NCc4ccc5c(c4)OCO5)CC[C@H]32)cc1`, the relative growth was inactive: 0.958.

As to `Cc1ccc(S(=O)(=O)N(C)C[C@@H]2Oc3ccc(NS(=O)(=O)c4cn(C)cn4)cc3C(=O)N([C@@H](C)CO)C[C@@H]2C)cc1`, the relative growth is inactive: 1.02.

On to `C[C@H]1CCCCO[C@@H](CN(C)C(=O)Nc2cccc3ccccc23)[C@@H](C)CN([C@@H](C)CO)C(=O)c2cc(NC(=O)Cc3ccccc3)ccc2O1`, for which the relative growth is inactive: 0.987.

With `C[C@H](NC(=O)C(C)(C)Oc1ccc(C(F)(F)F)cn1)[C@@H](Cc1ccc(Cl)cc1)c1cccc(C#N)c1`, the relative growth is inactive: 1.02.

On to `CC[C@@H](CO)NC(=O)c1ccc(N)cc1`, for which the relative growth was inactive: 1.01.

On to `C[C@@H]1CCCCO[C@@H](CN(C)S(C)(=O)=O)[C@H](C)CN([C@@H](C)CO)C(=O)c2cc(NC(=O)CCCN(C)C)ccc2O1`, for which the relative growth is inactive: 0.999.

Consider `C[C@@H]1CN([C@@H](C)CO)C(=O)c2cc(NC(=O)C3CCCCC3)ccc2O[C@@H](C)CCCCO[C@H]1CN(C)C(=O)NC1CCCCC1`, for which the relative growth was inactive: 0.983.

Take `CC(C)NC(=O)Nc1ccc2c(c1)C(=O)N([C@@H](C)CO)C[C@@H](C)[C@H](CN(C)Cc1ccccc1)OCCCC[C@@H](C)O2`: the relative growth is inactive: 1.

Consider `CCS(=O)(=O)NCC[C@@H]1CC[C@@H](NC(=O)Cc2ccccn2)[C@H](CO)O1`, for which the relative growth is inactive: 0.94.

For the molecule `Cc1noc(C)c1NC(=O)N(C)C[C@@H]1Oc2ccc(NC(=O)c3ccncc3)cc2C(=O)N([C@H](C)CO)C[C@H]1C`, the relative growth is inactive: 0.964.

As for `NNC(=S)NCc1cccs1`, the relative growth is inactive: 0.947.

Take `C[C@@H]1CN([C@H](C)CO)C(=O)c2cc(NC(=O)Nc3ccccc3)ccc2O[C@@H](C)CCCCO[C@H]1CN(C)Cc1ccc(C(=O)O)cc1`: the relative growth is inactive: 1.01.

On to `COc1ccc(NC(=O)Nc2cccc3c2O[C@H](CN(C)Cc2ccc(Oc4ccccc4)cc2)[C@@H](C)CN([C@@H](C)CO)C3=O)cc1`, for which the relative growth is inactive: 1.

Consider `C[C@@H]1CCCCO[C@@H](CN(C)Cc2ccc(Cl)c(Cl)c2)[C@H](C)CN([C@@H](C)CO)C(=O)c2cc(NC(=O)Nc3cccc4ccccc34)ccc2O1`, for which the relative growth was inactive: 1.03.

As to `Cc1ccc(S(=O)(=O)N(C)C[C@H]2Oc3c(NS(=O)(=O)c4cn(C)cn4)cccc3C(=O)N([C@@H](C)CO)C[C@H]2C)cc1`, the relative growth is inactive: 0.982.

Consider `CN1CCN(C(=O)C[C@H]2CC[C@@H]3[C@H](COC[C@@H](O)CN3Cc3ccc(Oc4ccccc4)cc3)O2)CC1`, for which the relative growth is inactive: 0.991.

On to `C[C@H]1CN([C@@H](C)CO)C(=O)c2cccc(NC(=O)c3ccc(-c4nccs4)cc3)c2O[C@H]1CN(C)C(=O)Nc1ccc(F)cc1`, for which the relative growth is inactive: 0.984.

Regarding `CCC(C)(C)C(=O)OC1CC(C)C=C2C=CC(C)C(CCC3CC(O)CC(=O)O3)C21` (centres undefined), the relative growth was inactive: 1.15.

Consider `C[C@@H]1CN([C@@H](C)CO)C(=O)c2cc(NS(=O)(=O)c3cccs3)ccc2O[C@H]1CN(C)Cc1ccc(Cl)c(Cl)c1`, for which the relative growth is inactive: 1.02.

As for `C[C@H](CO)N1C[C@H](C)[C@@H](CN(C)S(=O)(=O)c2ccc(F)cc2)Oc2ccc(NC(=O)CCN3CCOCC3)cc2C1=O`, the relative growth is inactive: 1.01.

In the case of `COc1ccc(S(=O)(=O)N[C@H]2C=C[C@H](CC(=O)NCCc3ccncc3)O[C@@H]2CO)cc1`, the relative growth was inactive: 0.982.

`C[C@@H]1CN([C@H](C)CO)C(=O)c2cccc(NC(=O)Nc3ccc(F)cc3)c2O[C@@H]1CN(C)C(=O)Nc1ccc(C(F)(F)F)cc1`: the relative growth was inactive: 0.978.

For `C[C@H]1CN([C@@H](C)CO)C(=O)c2cccc(NC(=O)c3cnccn3)c2O[C@H]1CN(C)C(=O)Nc1ccccc1`, the relative growth was inactive: 1.01.

For the molecule `C[C@@H]1CN([C@@H](C)CO)C(=O)c2cc(NC(=O)NC3CCCCC3)ccc2O[C@@H](C)CCCCO[C@@H]1CN(C)C(=O)c1ccncc1`, the relative growth was inactive: 0.998.

`C[C@@H]1CCCCO[C@H](CN(C)C(=O)CCC(F)(F)F)[C@@H](C)CN([C@@H](C)CO)C(=O)c2cc(NS(=O)(=O)c3ccc(F)cc3)ccc2O1`: the relative growth was inactive: 1.01.

`COCC#Cc1ccc2c(c1)O[C@H](CN(C)S(=O)(=O)c1ccc(C)cc1)[C@H](C)CN([C@H](C)CO)S2(=O)=O`: the relative growth was inactive: 1.02.

On to `NC(=O)NCCC[C@H](N)C(=O)O`, for which the relative growth was inactive: 0.983.

On to `C[C@@H]1CCCCO[C@@H](CN(C)Cc2ccncc2)[C@H](C)CN([C@H](C)CO)C(=O)c2cc(NS(=O)(=O)c3ccc(Cl)cc3)ccc2O1`, for which the relative growth is inactive: 0.993.

Turning to `C[C@H]1CN([C@@H](C)CO)C(=O)c2cccc(NS(=O)(=O)c3cn(C)cn3)c2O[C@H]1CN(C)S(=O)(=O)c1ccc(Cl)cc1`, the relative growth is inactive: 0.984.

Consider `COc1ccc(S(=O)(=O)N(C)C[C@@H]2Oc3ccc(NC(=O)Nc4c(C)noc4C)cc3CC(=O)N([C@@H](C)CO)C[C@H]2C)cc1`, for which the relative growth is inactive: 1.

Turning to `C[C@@H]1CN([C@H](C)CO)C(=O)c2cccc(NC(=O)Nc3ccc4c(c3)OCO4)c2O[C@@H]1CN(C)Cc1ccc(C(F)(F)F)cc1`, the relative growth was inactive: 0.964.

As for `C[C@@H]1CN([C@H](C)CO)C(=O)c2cc(NC(=O)Cc3ccccc3)ccc2O[C@@H](C)CCCCO[C@H]1CN(C)Cc1ccccc1`, the relative growth is inactive: 1.01.

Consider `C[C@H]1CN([C@@H](C)CO)C(=O)c2cc(C#CC3(O)CCCC3)cnc2O[C@H]1CN(C)S(C)(=O)=O`, for which the relative growth is inactive: 1.02.

On to `Cc1ccc(S(=O)(=O)N(C)C[C@@H]2Oc3ccc(NC(=O)Nc4ccc(C(F)(F)F)cc4)cc3CC(=O)N([C@@H](C)CO)C[C@H]2C)cc1`, for which the relative growth is inactive: 1.06.

With `C[C@@H]1CN([C@H](C)CO)C(=O)Cc2cc(NC(=O)Nc3ccc(F)cc3)ccc2O[C@H]1CN(C)Cc1ccc(-c2ccccc2)cc1`, the relative growth is inactive: 1.02.

On to `C[C@H]1CCCCO[C@H](CN(C)C(=O)CCC(F)(F)F)[C@@H](C)CN([C@@H](C)CO)C(=O)c2cc(NC(=O)Cc3ccccc3)ccc2O1`, for which the relative growth was inactive: 0.989.

With `COc1ccc(S(=O)(=O)N(C)C[C@H]2OCCCC[C@@H](C)Oc3ccc(NS(=O)(=O)c4cn(C)cn4)cc3C(=O)N([C@@H](C)CO)C[C@@H]2C)cc1`, the relative growth was inactive: 0.977.

For the molecule `Cc1noc(C)c1S(=O)(=O)Nc1ccc2c(c1)C(=O)N([C@H](C)CO)C[C@@H](C)[C@H](CN(C)Cc1ccc(Cl)c(Cl)c1)OCCCC[C@@H](C)O2`, the relative growth was inactive: 0.998.

As to `C[C@@H]1CN([C@H](C)CO)C(=O)c2cc(NC(=O)CCN3CCOCC3)ccc2O[C@@H]1CN(C)S(=O)(=O)c1cccs1`, the relative growth was inactive: 1.01.

Take `C[C@H]1CN([C@@H](C)CO)C(=O)c2cc(NC(=O)Nc3ccc(C(F)(F)F)cc3)ccc2O[C@@H]1CN(C)Cc1ccc2c(c1)OCO2`: the relative growth is inactive: 0.932.

Consider `COc1ccc(C#Cc2ccc3c(c2)[C@]2(C(=O)N3)[C@H](C(=O)O)[C@H]3C(=O)O[C@H](c4ccccc4)[C@H](c4ccccc4)N3[C@@H]2c2ccccc2OCCO)cc1`, for which the relative growth was inactive: 0.949.

`COc1ccc2c3c([nH]c2c1)[C@@H](CO)N(C[C@]13CCN(CC1)S(=O)(=O)c1ccccc1)C(=O)c1cnccn1`: the relative growth was inactive: 0.978.

As for `NCCS`, the relative growth is inactive: 0.974.

`COCCOC(=O)C1=C(C)NC(C)=C(C(=O)OC(C)C)C1c1cccc([N+](=O)[O-])c1` (centres undefined): the relative growth is inactive: 1.05.

For the molecule `NC(=O)N1CCC(=O)Nc2ccccc21`, the relative growth was inactive: 1.02.

For `Cc1ccc(S[C@]2(C(=O)O)CC(=O)N(Cc3cc(C(F)(F)F)cc(C(F)(F)F)c3)[C@@H]2c2ccc(CO)cc2)cc1`, the relative growth was inactive: 0.925.

As for `C=CCOC(=O)[C@@H]1[C@H]2C(=O)O[C@H](c3ccccc3)[C@H](c3ccccc3)N2[C@H](c2ccc(OCCOC(=O)[C@H]3C[C@H]4C(=O)NCC(=O)N4[C@H]3c3cccc(OCCO)c3)cc2)[C@@]12C(=O)Nc1ccc(I)cc12`, the relative growth was inactive: 1.02.
